From the supplement of paper PMC9174493
This is one part of the list. Single values of this set are uncertain. Values with irradiation are relative to irradiated vehicle.

What was measured:
A549-Dual [1] = assay: NF-kB reporter (SEAP) activity, viability-corrected, relative to vehicle (fold change vs vehicle); higher = more activation of STING-IRF / NF-kB immune response reporter; conditions: 10 µM
A549-Dual [2] = assay: ISRE reporter (Lucia luciferase) activity, viability-corrected, relative to vehicle (fold change vs vehicle); higher = more activation of STING-IRF / NF-kB immune response reporter; conditions: 10 µM
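Wherever NF-kB reporter (SEAP) activity, viability-corrected, relative to vehicle is given: viability correction based on the alamar blue assay, with concentrations leaving 10% survival or less dropped.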

Compound	NF-kB reporter (A549-Dual [1]; irradiation: 8 Gy/4 fr)	NF-kB reporter (A549-Dual [1]; irradiation: none)	ISRE reporter (A549-Dual [2]; irradiation: 8 Gy/4 fr)	ISRE reporter (A549-Dual [2]; irradiation: none)
Cc1cc(=O)oc2cc(O)ccc12 [4-Methylumbelliferone (4-MU)]	0.911	0.906	0.893	0.842
CN1C2CCCC1CC(NC(=O)c1nn(C)c3ccccc13)C2.Cl (stereo not given) [Granisetron HCl]	0.943	1.16	0.773	0.664
Cc1ccccc1C(OCCN(C)C)c1ccccc1.O=C(O)CC(O)(CC(=O)O)C(=O)O (stereo not given) [Orphenadrine Citrate]	0.706	0.796	0.857	0.838
CC(C)(S)C(N)C(=O)O (stereo not given) [Penicillamine]	1.04	0.97	0.986	0.831
CO/N=C(\C(=O)NC1C(=O)N2C(C(=O)[O-])=C(C[N+]3(C)CCCC3)CSC12)c1csc(N)n1.Cl.Cl.O (stereo not given) [Cefepime Dihydrochloride Monohydrate]	0.757	1.05	0.692	0.726
COc1cc(C(=O)NC2CCCNC2)cc(OC)c1OC (stereo not given) [Troxipide]	0.697	1.58	0.652	1.13
CC(C)CN(CC(O)C(Cc1ccccc1)NC(=O)OC1CCOC1)S(=O)(=O)c1ccc(N)cc1 (stereo not given) [Amprenavir]	0.704	1.15	0.726	0.942
CN(C)c1cc(CNCC(C)(C)C)c(O)c2c1CC1CC3C(N(C)C)C(O)=C(C(N)=O)C(=O)C3(O)C(O)=C1C2=O.Cc1ccc(S(=O)(=O)O)cc1 (stereo not given) [Omadacycline tosylate]	0.624	0.823	0.649	0.813
CN(C)CC/C=C1\c2ccccc2COc2ccccc21.Cl [Doxepin HCl]	0.861	0.956	0.796	0.679
O=C(O)c1ccc(NC(=O)C(Cc2ccc(O)cc2)NC(=O)c2ccccc2)cc1 (stereo not given) [Bentiromide]	0.778	0.523	0.607	0.515
CC(C)N=c1cc2n(-c3ccc(Cl)cc3)c3ccccc3nc-2cc1Nc1ccc(Cl)cc1 [Clofazimine]	0.887	1.03	0.965	2.3
CCn1cc(C(=O)O)c(=O)c2cc(F)c(N3CCNC(C)C3)c(F)c21.Cl (stereo not given) [Lomefloxacin HCl]	1.03	0.914	0.936	0.819
CCCNC(C)C(=O)Nc1ccccc1C.Cl (stereo not given) [Prilocaine hydrochloride]	0.541	1.27	0.619	0.928
CC(C)CN(CC(O)C(Cc1ccccc1)NC(=O)OC1COC2OCCC12)S(=O)(=O)c1ccc(N)cc1.CCO (stereo not given) [Darunavir Ethanolate]	0.991	1.01	0.994	0.901
NC(=O)CCC(N)C(=O)O (racemic) [DL-Glutamine]	1.14	0.837	1.07	0.73
CC1CNc2c(cccc2S(=O)(=O)NC(CCCNC(=N)N)C(=O)N2CCC(C)CC2C(=O)O)C1 (stereo not given) [Argatroban]	0.631	0.953	0.639	0.752
COC1CC(OC2C(C)OC(OC3/C(C)=C/CC4CC(CC5(C=CC(C)C(C6CCCCC6)O5)O4)OC(=O)C4C=C(C)C(O)C5OC/C(=C\C=C\C3C)C45O)CC2OC)OC(C)C1O (stereo not given) [Doramectin]	1.39	2.53	2.26	7.06
O=C([O-])P(=O)([O-])[O-].[Na+].[Na+].[Na+] [Foscarnet Sodium]	0.917	1.56	0.986	1.71
CC(CNC(=O)c1cccnc1)NC(=O)c1cccnc1 (stereo not given) [Nicaraven]	1.06	0.77	0.924	0.619
Cc1ccc(C2OC(CO)C(O)C(O)C2O)cc1Cc1ccc(-c2ccc(F)cc2)s1 (stereo not given) [Canagliflozin]	0.995	0.692	0.821	0.8
NS(=O)(=O)c1cc2c(cc1Cl)NC(C1CC3C=CC1C3)NS2(=O)=O (stereo not given) [Cyclothiazide]	0.669	1.21	0.699	0.846
O=C1C=C(O)C(=O)c2ccccc21 [Lawsone]	0.364	0.529	0.0852	0.162
CNC1C(=O)NC2Cc3ccc(cc3)Oc3cc4cc(c3OC3OC(C(=O)O)C(O)C(O)C3NC(=O)CCCCCCCCC(C)C)Oc3ccc(cc3Cl)C(O)C3NC(=O)C(NC(=O)C4NC(=O)C(NC2=O)c2cc(cc(O)c2Cl)Oc2ccc1cc2O)c1ccc(O)c(c1)-c1c(OC2OC(CO)C(O)C(O)C2O)cc(O)cc1C(C(=O)NCCCN(C)C)NC3=O (stereo not given) [Dalbavancin]	0.889	1.09	0.91	0.974
C=C1CCC2CC1C2(C)C (stereo not drawn) [(-)-β-Pinene]	0.734	0.9	0.729	0.812
CC(C)NCC(O)COc1ccc(CC(N)=O)cc1 (stereo not given) [Atenolol]	0.884	0.987	0.795	0.607
